This passage reports GI50 and TGI results from PubChem BioAssay (NCI).

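Following 48 hours of exposure in 96-well plates, responses at five concentrations were used to interpolate endpoints linearly. The concentration for 50% growth inhibition is given as GI50. TGI is the concentration that stops growth completely.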

This test relates to NCI-H322M lung. As to the kind of experiment: DTP human tumour cell line panel, 48 h.
Take `COc1cccc(COc2ccc(/C=C3\Oc4cc(O)ccc4C3=O)cc2)c1`: the GI50 was over 100 µM and the TGI is over 100 µM.

As to `Cc1ccc2nc(COc3ccc(C(=O)NNC(=O)Nc4ccc(Cl)c(C(F)(F)F)c4)cc3)[nH]c2c1`, the GI50 was 4.21 µM and the TGI worked out at 68.2 µM.

Consider `COc1nc(N)ncc1-c1ccc2ncnc(N3CCc4cc(F)c(Cl)cc43)c2c1`, for which the GI50 is 1.31 µM and the TGI came out at 7.79 µM.

For the molecule `O=c1cc(-c2ccccc2)oc2cc(OCCCNCc3ccccc3)cc(O)c12`, the GI50 was 6.93 µM and the TGI worked out at 21.8 µM.

Take `C/C(=N\N=C\c1ccc(Cl)c([N+](=O)[O-])c1)c1ccc2c(c1)Nc1ccccc1S2`: the GI50 was 16.7 µM and the TGI was over 100 µM.

Turning to `CC/C(=C(\c1ccc(O)cc1)c1ccc(OCCN(C)C(=O)COCCNC(=O)Cc2ccc3c(c2)CN([C@@H]2CCC(=O)NC2=O)C3=O)cc1)c1ccccc1`, the GI50 is 1.8 µM and the TGI is over 51.3 µM.

By GI50 is commonly meant the concentration giving 50% growth inhibition. By TGI is commonly meant the concentration at which net growth stops.
